Source: patent US20200079850A1 (SUTRO BIOPHARMA, published 2020)
Like-named read-outs stand apart in the source and are kept apart here. One block for each binder: values may come before it.

Assays:
[1] = target: T1, human LAG3 expressed on the cell surface (CHO-LAG3, 293T-LAG3 cells) (human, UniProt P18627 23-525); assay: flow cytometry, 293T-LAG3 cells
T1 construct: Stably transfected CHO or HEK293T cells; also called Human LAG3 (CHO); Human LAG3 (293T)
T1 sequence: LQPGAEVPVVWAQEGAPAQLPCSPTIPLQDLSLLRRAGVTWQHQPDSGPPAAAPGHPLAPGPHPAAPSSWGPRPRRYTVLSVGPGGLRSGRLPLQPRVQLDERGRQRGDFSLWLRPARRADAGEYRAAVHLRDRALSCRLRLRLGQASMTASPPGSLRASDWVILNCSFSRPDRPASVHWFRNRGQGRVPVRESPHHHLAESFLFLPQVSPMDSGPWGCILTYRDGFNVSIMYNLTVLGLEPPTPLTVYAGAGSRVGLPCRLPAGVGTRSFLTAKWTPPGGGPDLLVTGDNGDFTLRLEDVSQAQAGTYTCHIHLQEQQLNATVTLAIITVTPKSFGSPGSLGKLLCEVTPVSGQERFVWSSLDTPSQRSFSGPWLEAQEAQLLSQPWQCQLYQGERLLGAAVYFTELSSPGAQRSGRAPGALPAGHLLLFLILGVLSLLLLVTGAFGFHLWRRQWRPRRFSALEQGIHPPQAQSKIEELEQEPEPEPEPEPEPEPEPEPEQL

[2] = target: T2, human PD-1 expressed on the surface of CHO cells (human, UniProt Q15116 25-288); assay: flow cytometry, CHO-PD1 cells
T2 construct: I took it as human PD-1; also called CHO-PD1
Description: (§1) CHO-k cells stably expressing PD-1 or LAG3 (human or cynomolgus) on the cell surface were used to assess binding affinity of anti-PD-1/LAG3 bispecific antibody constructs. Cells were seeded at 100,000 cells/well in 100 μL of FACS buffer (1×PBS, 0.5% BSA, 0.1% sodium azide) in 96-well polypropylene plates. The cells were centrifuged at 1.5K rpm and resuspended with test antibodies diluted in FACS buffer and incubated on ice for 1 hour. The cells were washed twice with FACS buffer and incubated on ice for 30 mins with R-Phycoerythrin-AffiniPure F(ab′)2 Fragment Goat Anti-Human IgG (H+L) secondary detection antibody (1:200 dilution, Jackson ImmunoResearch Laboratories, West Grove, Pa.). The cells were washed twice with FACS buffer, fixed in 4% paraformaldehyde in PBS (Santa Cruz Biotechnology; Dallas, Tex.) for 20 mins on ice in the dark, washed twice with FACS buffer, and analyzed using the BD LSR II Flow Cytometer (BD Biosciences; San Jose, Calif.). Data were analyzed using FlowJo (FlowJo, LLC; Ashland, Oreg.) to determine mean fluorescence intensities. Binding constants were calculated using the statistical software, GraphPad Prism (GraphPad Software; La Jolla, Calif.) using the nonlinear regression equation, one site—specific binding with Hill slope. The secondary antibody by itself was used as a control.

[3] = target: T3, LAG3 (ELISA antigen of Table 25) (Homo sapiens (Human), UniProt P18627 23-450); assay: LAG3 ELISA
T3 sequence: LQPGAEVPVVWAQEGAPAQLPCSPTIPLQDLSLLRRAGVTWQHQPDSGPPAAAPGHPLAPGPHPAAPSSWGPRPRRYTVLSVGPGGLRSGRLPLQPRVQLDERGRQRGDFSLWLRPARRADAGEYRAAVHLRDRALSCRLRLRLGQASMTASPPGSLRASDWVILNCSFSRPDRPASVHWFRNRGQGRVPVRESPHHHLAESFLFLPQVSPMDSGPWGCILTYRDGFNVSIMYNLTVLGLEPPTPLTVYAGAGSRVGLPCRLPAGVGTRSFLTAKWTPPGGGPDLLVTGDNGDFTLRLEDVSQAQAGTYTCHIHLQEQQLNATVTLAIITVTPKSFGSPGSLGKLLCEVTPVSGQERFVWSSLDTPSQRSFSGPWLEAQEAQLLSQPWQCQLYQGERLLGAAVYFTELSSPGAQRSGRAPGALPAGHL

[4] = target: T2, human PD-1 expressed on the surface of …; assay: flow cytometry, CHO-PD1 cells; remark: listed apart in the source
Description: as §1

[5] = target: T4, human LAG3-Fc (R&D Systems #2319-L3) (human, UniProt P18627 23-450); assay: SPR (Biacore), antibody captured by anti-Flag, LAG3-Fc as analyte, 25 C
T4 construct: Bought protein; also called Human LAG3 (Biacore)
T4 sequence: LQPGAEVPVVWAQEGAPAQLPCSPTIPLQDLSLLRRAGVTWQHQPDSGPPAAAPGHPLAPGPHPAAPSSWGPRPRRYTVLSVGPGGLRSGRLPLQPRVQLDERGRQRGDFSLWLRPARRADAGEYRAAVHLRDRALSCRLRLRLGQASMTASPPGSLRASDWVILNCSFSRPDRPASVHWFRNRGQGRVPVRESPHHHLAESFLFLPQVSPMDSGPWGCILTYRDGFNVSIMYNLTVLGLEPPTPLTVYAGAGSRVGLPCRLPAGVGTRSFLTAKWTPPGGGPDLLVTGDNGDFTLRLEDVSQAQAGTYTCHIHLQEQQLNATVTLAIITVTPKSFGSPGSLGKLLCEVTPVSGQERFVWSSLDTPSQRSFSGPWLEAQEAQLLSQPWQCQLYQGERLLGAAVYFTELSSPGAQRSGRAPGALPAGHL
Description: Anti-Flag M2 IgG (Sigma-Aldrich # F9291) was immobilized onto a CMS chip (GE Life Sciences) using amine coupling chemistry (from Amine Coupling Kit, GE Life Sciences). The immobilization steps were carried out at a flow rate of 25 μL/min in 1×HBS-EP+ buffer (GE Life Sciences; 10×Stock diluted before use). The sensor surfaces were activated for 7 min with a mixture of NHS (0.05 M) and EDC (0.2 M). The Anti-Flag M2 IgG was injected over all 4 flow cells at a concentration of 25 μg/mL in 10 mM sodium acetate, pH 4.5, for 7 min. Ethanolamine (1 M, pH 8.5) was injected for 7 min to block any remaining activated groups. An average of 12,000 response units (RU) of capture antibody was immobilized on each flow cell.
Off-rate and kinetic binding experiments were performed at 25° C. using 1×HBS-EP+buffer. Test and control antibodies were injected over the Anti-Flag surface at concentrations of 5-10 μg/mL for 12 seconds at a flow rate of 10 μL/min on flow cells 2, 3 and 4, followed by a buffer wash for 30 seconds at the same flow rate. Kinetic characterization of antibody samples was carried out with a single concentration of antigen (for off-rate ranking) or a dilution series of antigen (for kinetic characterization) and 1 injection of 0 nM antigen. After capturing ligand (antibody) on the anti-Flag surface, the analyte (human LAG3-Fc, R&D Systems #2319-L3; or cynomolgus LAG3-Fc, accession # NC 022282.1) was bound at 50, 25, 12.5, 6.25, and 0 nM for 180 seconds, followed by a 600 second dissociation phase at a flow rate of 50 μl/min Between each ligand capture and analyte binding cycle, regeneration was carried out using 2 injections of 10 mM glycine pH 2.0 for 30 seconds at 30 μL/min, followed by a 30 second buffer wash step.
The data were fit with the Biacore T200 Evaluation software, using a 1:1 Langmuir binding model. KD (affinity, nM) was determined as a ratio of the kinetic rate constants calculated from the fits of the association and dissociation phases.

[6] = target: T1, human LAG3 expressed on the cell …; assay: flow cytometry, CHO cells expressing human LAG3
Description: (§2) LAG3 antibody variants were tested in a fluorescence-activated cell sorting (FACS) cell-binding assay. Chinese Hamster Ovary (CHO) cells or HEK293T cells stably expressing the human target molecule LAG3 on the cell surface (CHO-LAG3, 293T-LAG3) were used to screen for cell binders by flow cytometry. Parental CHO or 293T cells were used as a negative control to determine background-binding levels. Cells were cultured in RPMI with 10% FCS Penicillin/Streptomycin (or Pen/Strep) and glutamine (or Gln) and split every 3-4 days at 10⁵ cells/ml.
A mix of parental CHO cells and CHO-LAG3 cells (or 293T and 293T-LAG3 cells) was prepared as follows: Parental CHO cells were washed 2× in PBS then incubated in PBS containing 1 nM CellTrace™ Oregon Green488® (Life Technologies) at 37° C. for 30 minutes. […] Parental CHO cells and CHO-LAG3 cells were then mixed to obtain a 1:1 cell suspension and seeded at 100 μl per well on 96 well polypropylene plates. Plates were spun at 1500 rpm for 5 minutes and cell pellets were suspended in 50 μl FACS buffer containing 6-12 point dilutions of anti-LAG3 variants starting from concentrations of ˜100-200 nM antibody, dispensed using BioMekFX (Beckman Coulter). Cells were then incubated on ice for 1 hr, washed with FACS buffer and incubated for 1 hr on ice with 50 μl FACS buffer containing 2.5 μg/ml R-Phycoerythrin-conjugated Goat Anti-Human IgG (Jackson ImmunoResearch) or AF647-conjugated Goat Anti-mouse IgG (Life Technologies) dispensed using BioMekFX (Beckman Coulter). Cells were then washed 2× with FACS buffer and fixed for 10 minutes in 200 μl PBS with 2% PFA prior to fluorescence detection. Samples were acquired using a Beckton Dickinson LSRII FACS. Mean Fluorescence Intensity of LAG3 antibody binding was analyzed using Tree Star, Inc. FlowJo® software.

[7] = target: T1, human LAG3 expressed on the cell …; assay: flow cytometry, 293T cells expressing human LAG3
Description: as §2
A mix of parental CHO cells and CHO-LAG3 cells (or 293T and 293T-LAG3 cells) was prepared as follows: Parental CHO cells were washed 2× in PBS then incubated in PBS containing 1 nM CellTrace™ Oregon Green488® (Life Technologies) at 37° C. for 30 minutes. […] Parental CHO cells and CHO-LAG3 cells were then mixed to obtain a 1:1 cell suspension and seeded at 100 μl per well on 96 well polypropylene plates. […] Cells were then washed 2× with FACS buffer and fixed for 10 minutes in 200 μl PBS with 2% PFA prior to fluorescence detection. […] Mean Fluorescence Intensity of LAG3 antibody binding was analyzed using Tree Star, Inc. FlowJo® software.

T2 sequence (Q15116 25-288 limits assumed): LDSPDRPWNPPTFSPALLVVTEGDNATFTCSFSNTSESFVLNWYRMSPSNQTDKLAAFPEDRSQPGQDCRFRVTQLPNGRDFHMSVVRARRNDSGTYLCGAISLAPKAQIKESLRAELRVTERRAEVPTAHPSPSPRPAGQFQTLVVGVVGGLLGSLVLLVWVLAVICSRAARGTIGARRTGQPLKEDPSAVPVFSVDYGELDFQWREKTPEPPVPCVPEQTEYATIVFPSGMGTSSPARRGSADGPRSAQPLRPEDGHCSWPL

B1: Construct E: aLAG3 1449-G09.2_K x aPD1 1353-G10_H (two-chain scFvFc, knob-in-hole) (bispecific antibody)
scFv 1: MQVQLVESGGGVVQPGRSLRLSCAASGFTFSSYGMHWVRQAPGKGLEWVAVIWYDGSYKYYADSVKGRFTISRDNSKNTLYLQMNSLRAEDTAVYYCAREEAPENWDYALDVWGQGTTVTVSSAPGPSAPSHRSLPSRAFG[no letters for about 100 residues]SFGPGTKVDIKAAGSDQ[no letters for human IgG1 Fc with changes]
scFv 2: MEVQLVQSGAEVKKPGASVKVSCKASGYRFPHYGISWVRQAPGQGLEWMGWISAYNGNTNYAQKLQGRVTMTTDTSTNTAYMELRSLRSDDTAVYYCARDVDYGTGSGYWGQGTLVTVSSGGGGSGGGGSGGGGSSYELTQPPSVSVSPGQTARITCSGDALPKQYAYWYQQKPGQAPVMVIYKDTERPSGIPERFSGSSSGTKVTLTISGVQAEDEADYYCQSADNSITYRVFGGGTKVTVLAAGSDQ[no letters for human IgG1 Fc with changes]
- Kd [1]: 8 nM
- Kd [2]: 3 nM
- EC50 [3]: 0.69 nM
- Bmax [4]: 6300
- Kd [4]: 1 nM

B3: SRP1449-D05 (scFv)
chain: QVQLVESGGGVVQPGRSLRLSCAASGFTFRSFGMHWVRQAPGKGLEWVAVIWYDGSVKYYADSVKGRFTISRDNSKNTLYLQMNSLRAEDTAVYYCAREWADVSWDAGLDVWGQGTTVTVSSGGGGSGGGGSGGGGS[no letters for about 100 residues]KFGPGTKVDIKAAGSDQ[no letters for human IgG1 Fc with changes]GSGDYKDDDDKGSG
- Kd [6]: 1.54 nM

B4: 1449-G09.2 (scFv)
chain: QVQLVESGGGVVQPGRSLRLSCAASGFTFSSYGMHWVRQAPGKGLEWVAVIWYDGSYKYYADSVKGRFTISRDNSKNTLYLQMNSLRAEDTAVYYCAREEAPENWDYALDVWGQGTTVTVSSGGGGSGGGGSGGGGS[no letters for about 100 residues]SFGPGTKVDIKAAGSDQ[no letters for human IgG1 Fc with changes]GSGDYKDDDDKGSG
- Kd [6]: 0.32 nM

B7: SRP1448-D09 (scFv)
chain: EVQLLESGGGLVQPGGSLRLSCAASGFTFTDSSMSWVRQAPGKGLEWVGVITGNSGTTDYADSVKGRFTISRDNSKNTLYLQMNSLRAEDTAVYYCAKVYEGGVRPYSDYWGQGTLVTVSSGGGGSGGGGSGGGGSEIVLTQSPGTLSLSPGERATLSCRASQSVSSSYLAWYQQKPGQAPRLLIYGASSRATGIPDRFSGSGSGTDFTLTISRLEPEDFAVYYCQQDTAGPPTFGQGTKVEIKAAGSDQ[no letters for human IgG1 Fc with changes]GSGDYKDDDDKGSG
- Kd [7]: 0.4 nM

The next lines start with the values.

- Kd [5]: 13 nM
- koff [5]: 0.0099 s⁻¹
- kon [5]: 790000 M⁻¹ s⁻¹
B2: SRP1558-A06 (scFv)
chain: EVQLLESGGGLVQPGGSLRLSCAASGFTFSESTMSWVRQAPGKGLEWVGFITSDSGTTDYADSVKGRFTISRDNSKNTLYLQMNSLRAEDTAVYYCAKVFEGGVRPFSDYWGQGTLVTVSSGGGGSGGGGSGGGGSEIVLTQSPGTLSLSPGERATLSCRASQSVSSNPLAWYQQKPGQAPRLLIYGASSRATGIPDRFSGSGSGTDFTLTISRLEPEDFAVYYCQQYMAGPPTFGQGTKVEIKAAGSDQ[no letters for human IgG1 Fc with changes]GSGDYKDDDDKGSG

- Kd [6]: 3.37 nM
B5: SRP1449-F01 (scFv)
chain: QVQLVESGGGVVQPGRSLRLSCAASGFTFSSYGMHWVRQAPGKGLEWVAVIWYDGSYKYYADSVKGRFAISRDNSKNTLYLQMNSLRAEDTAVYYCARESEVASWDYGLDVWGQGTTVTVSSGGGGSGGGGSGGGGS[no letters for about 100 residues]FGPGTKVDIKAAGSDQ[no letters for human IgG1 Fc with changes]GSGDYKDDDDKGSG

- Kd [7]: 0.5 nM
- Kd [5]: 24 nM
- koff [5]: 0.011 s⁻¹
- kon [5]: 435000 M⁻¹ s⁻¹
B6: SRP1558-F01 (scFv)
chain: EVQLLESGGGLVQPGGSLRLSCAASGFTFPDSSMSWVRQAPGKGLEWVGVITDNSGNTDYADSVKGRFTISRDNSKNTLYLQMNSLRAEDTAVYYCAKVFEGGVRPYSDYWGQGTLVTVSSGGGGSGGGGSGGGGSEIVLTQSPGTLSLSPGERATLSCRASQSVSSGNPAWYQQKPGQAPRLLIYGASSRATGIPDRFSGSGSGTDFTLTISRLEPEDFAVYYCQQYTAGPPTFGQGTKVEIKAAGSDQ[no letters for human IgG1 Fc with changes]GSGDYKDDDDKGSG
